{"source": "PubChem BioAssay AID504332", "about": "(National Center for Advancing Translational Sciences (NCATS), 2011)", "note": "In all, about 350,000 compounds went through this assay and about 31,000 (8.9%) were called active. The shares of active, inactive and inconclusive entries below differ from those in the screen. Calls follow the shape of the dose curve; as a rule, active = well fitted inhibition curve with a large enough effect; inconclusive = small, poorly fitted or top-dose-only effect; inactive = no such curve, though single readings can be large or run the other way. Where the call is inconclusive, the potency comes from a doubtful curve fit. % is scaled to controls: 0 for no effect and ±100 for the full control effect; potency is read from the fitted curve at half-maximal effect; tags tell the direction and shape of the fitted curve."}
{"biological_target": "Histone-lysine N-methyltransferase EHMT2 (Homo sapiens) (UniProt Q96KQ7)", "sequence (Q96KQ7 whole entry, looked up)": "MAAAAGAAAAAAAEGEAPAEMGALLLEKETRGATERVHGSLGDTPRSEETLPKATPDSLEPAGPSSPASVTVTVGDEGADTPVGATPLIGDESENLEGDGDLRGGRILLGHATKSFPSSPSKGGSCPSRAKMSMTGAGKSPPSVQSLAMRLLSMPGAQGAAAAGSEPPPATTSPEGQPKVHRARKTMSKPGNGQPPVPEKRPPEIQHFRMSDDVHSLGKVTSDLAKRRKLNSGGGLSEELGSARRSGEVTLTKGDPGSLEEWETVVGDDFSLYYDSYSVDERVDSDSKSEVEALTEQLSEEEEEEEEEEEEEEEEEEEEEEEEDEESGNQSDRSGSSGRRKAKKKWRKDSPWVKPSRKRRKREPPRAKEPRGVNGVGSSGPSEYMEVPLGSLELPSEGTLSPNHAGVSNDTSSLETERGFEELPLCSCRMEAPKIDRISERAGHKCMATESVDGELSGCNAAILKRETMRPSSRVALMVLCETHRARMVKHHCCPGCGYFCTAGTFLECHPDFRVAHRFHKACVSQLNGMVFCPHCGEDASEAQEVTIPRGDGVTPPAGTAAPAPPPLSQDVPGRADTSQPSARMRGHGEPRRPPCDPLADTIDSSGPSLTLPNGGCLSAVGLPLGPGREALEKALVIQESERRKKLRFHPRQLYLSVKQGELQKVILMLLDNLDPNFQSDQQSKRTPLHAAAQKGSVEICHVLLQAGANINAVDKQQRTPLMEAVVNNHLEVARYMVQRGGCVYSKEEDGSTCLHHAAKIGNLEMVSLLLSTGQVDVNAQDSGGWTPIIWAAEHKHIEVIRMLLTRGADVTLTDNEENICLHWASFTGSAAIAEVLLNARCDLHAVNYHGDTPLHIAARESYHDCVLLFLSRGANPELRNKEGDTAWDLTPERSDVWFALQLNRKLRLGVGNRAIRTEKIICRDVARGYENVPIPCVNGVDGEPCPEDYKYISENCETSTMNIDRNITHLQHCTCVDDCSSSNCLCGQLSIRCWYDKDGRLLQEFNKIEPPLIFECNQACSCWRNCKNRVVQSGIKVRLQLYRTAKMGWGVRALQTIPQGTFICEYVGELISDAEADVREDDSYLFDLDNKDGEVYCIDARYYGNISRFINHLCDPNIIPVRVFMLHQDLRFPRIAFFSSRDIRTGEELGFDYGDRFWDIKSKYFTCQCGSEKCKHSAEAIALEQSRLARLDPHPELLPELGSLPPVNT", "experiment": "qHTS Assay for Inhibitors of Histone Lysine Methyltransferase G9a; also: nearly all actives have a fitted effect of over 75% in size", "settings": "G9a H3K9 monomethylation, AlphaScreen, 2 h; activity, negative = inhibition: at 59 µM (top of the series) unless noted", "procedure,_shortened": "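Compounds were preincubated with 20 nM G9a for 15 min, after which biotinylated H3K9 peptide (500 nM) and SAM (20 uM) started a 2 h room-temperature reaction. Monomethylated product was quantified by antibody-based AlphaScreen chemiluminescence.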"}
{"smiles": "CC(C)C(=O)N1CCN(c2ccc([N+](=O)[O-])cc2Cl)CC1", "Potency": "inactive"}
{"smiles": "COC(=O)c1ccccc1NC(=S)NC(=O)c1cccc2ccccc12", "Potency": "inactive"}
{"smiles": "COc1ccc(-c2noc(-c3ccc(NCc4ccco4)c([N+](=O)[O-])c3)n2)cc1", "Potency": "inconclusive: 35.5 µM [inhibitor, single point]"}
{"smiles": "O=C(Nc1ccc(Cl)cc1)C1CCN(C(=O)c2ccco2)CC1", "Potency": "inactive"}
{"smiles": "N#C/C(=C/c1ccc(O)c(O)c1)C(=O)NCc1ccc(Cl)cc1", "Potency": "active: 11.2 µM"}
{"smiles": "CCOc1ccccc1Nc1nc(-c2cccc(Cl)c2)c2c(n1)-c1ccccc1OC2", "Potency": "active: 25.1 µM"}
{"smiles": "COc1coc(C(O)C[N+](=O)[O-])cc1=O", "note": "(stereo unspecified)", "Potency": "inconclusive: 89.1 µM [inhibitor, single point]"}
{"smiles": "O=C1N=c2ccccc2=C1c1c(O)n(-c2cccc(F)c2)[nH]c1=O", "Potency": "active: 3.98 µM"}
{"smiles": "COc1ccc(NC(=O)Cn2cc(S(=O)(=O)c3ccc(C)cc3)c(=O)c3ccccc32)cc1OC", "Potency": "inconclusive: 25.1 µM [inhibitor, partial curve, poor fit]"}
{"smiles": "CS(=O)(=O)c1ccccc1C(=O)N1CCN(S(=O)(=O)c2ccc(C3CCCCC3)cc2)CC1", "Potency": "active: 50.1 µM"}
{"smiles": "CCOc1cccc(/C(O)=C2/C(=O)C(=O)N(CCOC)C2c2ccco2)c1", "note": "(stereo unspecified)", "Potency": "inconclusive: 0.891 µM [inhibitor, full curve, poor fit]"}
{"smiles": "COC(=O)CC1C(C)(C)C(OC(C)=O)C2CC3C4CC(=O)OC(c5ccoc5)[C@]4(C)CCC3[C@@]1(C)C2=O", "note": "(stereo partly specified)", "activity, negative = inhibition": "inactive: -42.3% [at 2.33 µM]"}
{"smiles": "COc1ccccc1/C=C/C(=O)NC(=S)NCC1CCCO1", "note": "(stereo unspecified)", "Potency": "inconclusive: 17.8 µM [inhibitor, partial curve, poor fit]"}
{"smiles": "O=C(NCCc1cnc[nH]1)Nc1cccc(C(F)(F)F)c1", "Potency": "inactive"}
{"smiles": "COc1cc(NC(=O)C2=C(C)OCCS2)c(Cl)cc1C(=O)NCCN(C)C", "Potency": "inconclusive: 89.1 µM [inhibitor, single point]"}
{"smiles": "CN1CCCN(S(=O)(=O)c2ccccc2)c2nc3ccccc3nc21", "Potency": "inconclusive: 4.47 µM [inhibitor, full curve, poor fit]"}
{"smiles": "O=C(COC(=O)CCC(=O)c1ccc(Cl)cc1)NC1CC1", "Potency": "inconclusive: 79.4 µM [inhibitor, single point]"}
{"smiles": "CCOc1ccc(N2C(=O)/C(=C\\c3ccc(OC)c(O)c3)S(=O)(=O)C2c2cccc([N+](=O)[O-])c2)cc1", "note": "(stereo unspecified)", "Potency": "inconclusive: 79.4 µM [inhibitor, single point]"}
{"smiles": "Clc1nc(Cl)nc(-c2cn(-c3ccccc3)c3ccccc23)n1", "Potency": "active: 12.6 µM"}
{"smiles": "Cn1c(C(=O)NCCCN2CCN(c3ccccc3F)CC2)cc2c(=O)n(C)c3ccccc3c21", "Potency": "active: 50.1 µM"}
{"smiles": "COc1cc(OC)c(OC)cc1CN(C)CCc1ccccn1", "Potency": "inconclusive: 2.82 µM [inhibitor, partial curve, poor fit]"}
{"smiles": "Cc1ccc(CSCC(Nc2ccc(C(=O)O)cc2[N+](=O)[O-])C(=O)O)cc1", "note": "(stereo unspecified)", "Potency": "inconclusive: 3.16 µM [inhibitor, partial curve, poor fit]"}
{"smiles": "Cc1ccc(Nc2nnc(-c3ccc(C)c(S(=O)(=O)N4CCN(C)CC4)c3)c3ccccc23)c(C)c1", "Potency": "inactive"}
{"smiles": "C/C(=N\\NC(N)=S)c1ccc(-n2ccnc2)cc1", "activity, negative = inhibition": "inconclusive: -99.9% [inhibitor]"}
{"smiles": "CC(C)c1ccccc1NC(=O)COC(=O)Cc1cccc(C(F)(F)F)c1", "Potency": "inactive"}
{"smiles": "CCCc1cc(=O)[nH]c(SCC(=O)N(CC)c2c(N)n(Cc3ccccc3)c(=O)[nH]c2=O)n1", "Potency": "inconclusive: 39.8 µM [inhibitor, partial curve, poor fit]"}
{"smiles": "COc1ccc(S(=O)(=O)CC(=O)c2cc3cc(Br)ccc3oc2=O)cc1", "Potency": "active: 25.1 µM"}
{"smiles": "CNC(=O)c1ccsc1NC(=O)c1ccc(S(=O)(=O)N2CCc3ccccc32)cc1", "Potency": "inconclusive: 39.8 µM [inhibitor, partial curve, poor fit]"}
{"smiles": "Cc1cccc2sc(NC(=O)CSCc3ccccc3)nc12", "activity, negative = inhibition": "inactive: 23.2% [at 12.7 µM]"}
{"smiles": "CCN(CCCNC(=O)CCCn1c(=O)[nH]c2ccccc2c1=O)c1cccc(C)c1", "Potency": "active: 12.6 µM"}
{"smiles": "CCOc1ccc(C(=O)Nc2ccc(N3CCCC3)cc2)cc1", "activity, negative = inhibition": "inconclusive: -103% [inhibitor] [at 12.7 µM]"}
{"smiles": "Cc1nn(-c2ccccc2)c2[nH]c(=O)c(CNCCN3CCOCC3)cc12", "Potency": "inconclusive: 3.55 µM [inhibitor, partial curve, poor fit]"}
{"smiles": "O=C(Nc1nc(=O)[nH]s1)c1ccccc1", "Potency": "inactive"}
{"smiles": "O=C(Nc1ccc2c(c1)COC2=O)c1ccc(Cl)c(Cl)c1", "Potency": "inactive"}
{"smiles": "COc1ccc(CNC(=O)c2cc(C)nn2-c2ccccc2)cc1", "Potency": "inactive"}
{"smiles": "O=C1CN(C(=O)c2ccc(Br)o2)C(c2ccc(F)cc2)c2cc(F)ccc2N1", "note": "(stereo unspecified)", "Potency": "inconclusive: 35.5 µM [inhibitor, single point]"}
{"smiles": "CCCN(C(=O)c1nn(-c2ccc(OC)c(Cl)c2)c(=O)c2c1c1ccccc1n2C)c1ccccc1F", "Potency": "inactive"}
{"smiles": "COc1ccc(OC)c(NC(=O)Cn2cnc3sc(C)c(S(=O)(=O)N4CCN(c5ccccc5OC)CC4)c3c2=O)c1", "Potency": "inactive"}
{"smiles": "COc1ccc(-c2onc3ccc(Cl)cc23)cc1", "Potency": "inconclusive: 28.2 µM [inhibitor, single point]"}
{"smiles": "O=c1c(-c2ccc(Br)cc2)[n+]([O-])c2ccccc2n1OCc1ccccn1", "Potency": "inactive"}
{"smiles": "O=C(Nc1ccc2nc(N3CCOCC3)sc2c1)c1ccc(F)cc1", "Potency": "inconclusive: 11.2 µM [inhibitor, single point]"}
{"smiles": "NS(=O)(=O)c1ccc(NC(=S)NC(=O)c2ccc(Br)o2)cc1", "Potency": "inconclusive: 56.2 µM [inhibitor, partial curve, poor fit]"}
{"smiles": "CC(Sc1ccsc1[N+](=O)[O-])C(=O)NCc1ccco1", "note": "(stereo unspecified)", "Potency": "inconclusive: 79.4 µM [inhibitor, single point]"}
{"smiles": "O=C(c1nnsc1S(=O)(=O)c1ccc(Cl)cc1)N1CCOCC1", "Potency": "active: 50.1 µM"}
{"smiles": "CCOC(=O)CSc1nc(-c2ccccn2)ncc1OC", "Potency": "inconclusive: 79.4 µM [inhibitor, partial curve, poor fit]"}
{"smiles": "CC(C)C(=O)Nc1cccc(C(=O)NCc2ccc3c(c2)OCO3)c1", "Potency": "inconclusive: 39.8 µM [inhibitor, single point]"}
{"smiles": "COC(=O)c1cn(NC(=O)C2CCCO2)c(=O)c2ccccc12", "note": "(stereo unspecified)", "Potency": "inconclusive: 39.8 µM [inhibitor, single point]"}
{"smiles": "COc1ccccc1OC(C)C(=O)Nc1ccc2c(c1)n(C)c(=O)n2C", "note": "(stereo unspecified)", "Potency": "inactive"}
{"smiles": "COc1ccc(Cn2nnnc2C(CC(C)C)N2CCN(c3ccccc3)CC2)cc1", "note": "(stereo unspecified)", "Potency": "inactive"}
{"smiles": "COc1ccc(C(=O)Nc2cc(C(C)C)c(O)c(S(=O)(=O)c3ccc(OC)cc3)c2C)cc1", "Potency": "inconclusive: 0.708 µM [inhibitor, partial curve, poor fit]"}
{"smiles": "CC1CCCCN1C(=O)CNCc1ccc(F)cc1", "note": "(stereo unspecified)", "Potency": "inconclusive: 1.41 µM [inhibitor, single point]"}
{"smiles": "Cc1c(C)c2cc(Cl)c(O)c(CN(C)C)c2oc1=O", "activity, negative = inhibition": "inactive: -2.17% [at 12.7 µM]"}
{"smiles": "O=[N+]([O-])c1ccc(NCc2ccncc2)cc1", "Potency": "inactive"}
{"smiles": "CN(C(=O)c1cc2c(=O)oc3ccccc3c2s1)c1ccc(F)cc1", "Potency": "inconclusive: 6.31 µM [inhibitor, single point]"}
{"smiles": "Cc1ccc(C(=O)N(Cc2ccc3c(c2)OCO3)Cc2nc3ccccc3c(=O)[nH]2)cc1", "Potency": "inactive"}
{"smiles": "CCOC(=O)c1ccc(NC(=O)CSc2n[nH]c(-c3ccncc3)n2)cc1", "Potency": "inconclusive: 50.1 µM [inhibitor, partial curve, poor fit]"}
{"smiles": "NC(=S)N/N=C1\\CC(n2nnnc2-c2ccccc2Cl)C2COC1O2", "note": "(stereo unspecified)", "Potency": "inconclusive: 44.7 µM [inhibitor, partial curve]"}
{"smiles": "CCC1CCCCN1Cc1nc2c(c(=O)n(C)c(=O)n2C)n1CCC(C)C", "note": "(stereo unspecified)", "Potency": "inconclusive: 22.4 µM [inhibitor, partial curve, poor fit]"}
{"smiles": "C=CCNC(=O)/C(C#N)=C/c1c(N2CCN(c3ccc(OC)cc3)CC2)nc2c(C)cccn2c1=O", "activity, negative = inhibition": "inactive: 12.8% [at 2.33 µM]"}
{"smiles": "CCOC(=O)N1CCN(C(=O)c2ccc3c(=O)n(Cc4ccccc4)c(=S)[nH]c3c2)CC1", "Potency": "inconclusive: 79.4 µM [inhibitor, single point]"}
{"smiles": "COc1ccc(CCn2c(N)cc(=O)[nH]c2=S)cc1OC", "Potency": "inconclusive: 50.1 µM [inhibitor, partial curve]"}
{"smiles": "CCOC(=O)C1(CC2CC2)CCN(C(=O)c2ocnc2C)CC1", "Potency": "inactive"}
{"smiles": "CCOC(=O)C1CCN(S(=O)(=O)c2cc(-c3onc(C)c3C)ccc2OC)CC1", "Potency": "inactive"}
{"smiles": "Cc1cc(C(=O)CSc2nc3ccc(Cl)cc3[nH]2)c(C)n1C", "Potency": "inconclusive: 39.8 µM [inhibitor, single point]"}
{"smiles": "CN(Cc1ccc(Br)cc1)CC(O)COc1cccc(Br)c1", "note": "(stereo unspecified)", "Potency": "active: 22.4 µM"}
{"smiles": "COCCCNC(=O)CSc1ccsc1[N+](=O)[O-]", "Potency": "inactive"}
{"smiles": "CN(C)c1ccc(C(=O)NCCCSc2ccccc2)cc1", "Potency": "inconclusive: 89.1 µM [inhibitor, single point]"}
{"smiles": "Cc1ccc(-c2csc(N(CCO)CCCn3c(C(F)(F)F)nc4ccccc43)n2)cc1", "Potency": "active: 44.7 µM"}
{"smiles": "COCCn1nnnc1C(c1ccccn1)N1CCN(c2cccc(C)c2C)CC1", "note": "(stereo unspecified)", "Potency": "inconclusive: 39.8 µM [inhibitor, single point]"}
{"smiles": "CCCCn1c2ccc(F)cc2c2nnc(SCCN3CCCCC3)nc21", "Potency": "inactive"}
{"smiles": "COc1ccc(CN2CCNC(=O)C2CC(=O)NCc2csc(C)n2)c(F)c1", "note": "(stereo unspecified)", "Potency": "inconclusive: 79.4 µM [inhibitor, single point]"}
